Measurements: the supplement of paper PMC3334620
In all, about 33,000 sequences were measured (“E-score (-0.5 to 0.5)”: median about -0.035, highest 2% from about 0.34 on). The list shows a part of the results.

Biological target: T1, Mot3 (UniProt P54785)
T1 sequence: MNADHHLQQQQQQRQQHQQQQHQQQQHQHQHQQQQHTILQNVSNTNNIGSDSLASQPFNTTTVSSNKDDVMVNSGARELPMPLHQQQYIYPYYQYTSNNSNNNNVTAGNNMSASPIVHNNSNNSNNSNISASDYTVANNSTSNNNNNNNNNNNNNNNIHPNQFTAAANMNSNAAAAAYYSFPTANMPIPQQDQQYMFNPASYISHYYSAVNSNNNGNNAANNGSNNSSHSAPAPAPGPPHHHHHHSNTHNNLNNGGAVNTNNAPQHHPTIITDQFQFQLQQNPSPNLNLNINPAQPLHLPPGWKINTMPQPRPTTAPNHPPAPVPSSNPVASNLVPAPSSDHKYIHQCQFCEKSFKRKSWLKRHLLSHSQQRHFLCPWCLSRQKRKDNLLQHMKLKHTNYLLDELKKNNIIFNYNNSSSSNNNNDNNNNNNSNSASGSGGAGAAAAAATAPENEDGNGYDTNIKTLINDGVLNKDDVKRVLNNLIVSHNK
Experiment: PBM E-score (8-mer binding enrichment) (E-score (-0.5 to 0.5)); higher = stronger / more preferred TF binding; most listed sequences are background and not binding sites
Conditions: protein concentration: 200 nM; construct: GST-full length
Summary of the method: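 Bound GST-tagged yeast transcription factors, applied at about 100-200 nM to double-stranded universal all-10-mer Agilent arrays, were detected with fluorescent anti-GST. Scans were normalised with masliner. A modified Wilcoxon-Mann-Whitney statistic, the E-score, was assigned to each ungapped eight-base word pooled with its reverse complement by the Universal PBM Analysis Suite.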

Row | Sequence | PBM E-score
1 | ACGTCATC | 0.0498
2 | AGCTAAGA | -0.067
3 | GAGTCAAA | -0.124
4 | GCCGACCC | -0.288
5 | ACTGTTGC | -0.0412
6 | CCATGGGC | -0.252
7 | CATTCTCG | -0.0552
8 | GGCGGTCA | -0.217
9 | TAGTTAAA | 0.219
10 | ACCCAGCC | -0.259
11 | GCGCCGAA | -0.245
12 | CATGATCC | -0.0181
13 | CCGTGGGA | -0.315
14 | CAGAGCCC | -0.199
15 | CCTACCTA | 0.156
16 | AAAGCCGA | -0.225
17 | CTGAACTA | 0.0444
18 | GGCGAGAA | -0.143
19 | CCTTGACC | -0.00187
20 | AGTCCGTG | -0.137
21 | TTGCCCAA | 0.111
22 | GTCGAGAC | -0.0772
23 | CGTCGTAG | -0.122
24 | CGAGCGAA | -0.185
25 | ACGGCACG | 0.155

Row | Sequence | PBM E-score
26 | TACTCACA | 0.0635
27 | CGTATGTA | 0.309
28 | AATTGCAG | 0.0282
29 | AACTCATG | 0.0648
30 | GAGGGTCC | -0.284
31 | AAGTCTGC | -0.106
32 | CTAGACCC | -0.126
33 | TGTTTCAA | 0.0318
34 | ATTTCCGA | -0.201
35 | GCAATATA | 0.0935
36 | AAAGCGCG | 0.0677
37 | CTGTGCGA | 0.0202
38 | CTGGAGTA | -0.0249
39 | AACAAAGA | 0.172
40 | AAACAGCA | 0.0649
41 | CTAATCCC | -0.0715
42 | CAGGCTGG | -0.185
43 | CTATCGGA | -0.0461
44 | ATCCCGGC | -0.234
45 | AAGCACAC | 0.0333
46 | CGCGTACG | 0.156
47 | ACTAATAA | 0.142
48 | AAACCTCC | -0.102
49 | AGTTCTGC | -0.0851
50 | AGACCTTG | 0.0469

Row | Sequence | PBM E-score
51 | ACTCCGAT | -0.0536
52 | ATGGGCTC | -0.0868
53 | CGATCTAG | -0.138
54 | CAACACGC | 0.322
55 | GCTACGGA | -0.161
56 | CGCCCATC | -0.261
57 | CGTGAGTC | -0.199
58 | ACCCCCAA | -0.0432
59 | ACGCCTAA | 0.116
60 | AGACTTCG | 0.0697
61 | GTTATCAA | 0.0169
62 | GCGACGTA | 0.0393
63 | ACCGCGAA | -0.0635
64 | CATACCCC | -0.119
65 | CTTACTGC | -0.153
66 | CCAATAAC | 0.0787
67 | CAAGCTTC | -0.207
68 | ACGGAACA | -0.0342
69 | ACCGGCTG | -0.0846
70 | AATAGCTC | -0.14
71 | ATCGATCG | -0.0942
72 | ATGATGGA | -0.0932
73 | CGACACGC | 0.157
74 | AACGTGAA | 0.15
75 | GGTCATAC | -0.226

Row | Sequence | PBM E-score
76 | GCCCCTCA | -0.167
77 | ATCAGCGA | -0.168
78 | CTTATGGA | -0.267
79 | ACGGTCAT | 0.0032
80 | CGGGAAAG | -0.185
81 | CGCATTTC | 0.0684
82 | ACATGTAC | 0.333
83 | CTCTGACC | -0.361
84 | CTTCTGTC | -0.147
85 | CTAATGTA | 0.271
86 | GAAGAAAC | -0.0108
87 | AAACTAAA | 0.146
88 | ACAGCTAC | 0.0626
89 | GCTCGTCA | -0.203
90 | GGCTAACC | 0.0149
91 | CATCGCTA | 0.0342
92 | TGTAAACA | 0.387
93 | CCGGAAAG | -0.215
94 | GTAGGTAA | 0.346
95 | TAACCACA | 0.179
96 | ATAACGCA | 0.218
97 | GAGCCCGC | -0.333
98 | ATCGCATC | -0.309
99 | GATGAAGA | -0.135
100 | GGCTCCAA | -0.0568

Row | Sequence | PBM E-score
101 | AGAGTGGC | -0.204
102 | AGTCTGTA | -0.00969
103 | ATAGACCC | 0.178
104 | CAGTCGAC | -0.0375
105 | TGGATCAA | -0.145
106 | ACGGATGC | -0.0571
107 | ACCCATGA | -0.131
108 | GCATACCA | -0.152
109 | ACCCCCGA | 0.0111
110 | CACGGAGC | 0.123
111 | GGACGTAA | 0.185
112 | GGGAACTA | -0.0385
113 | CCAAATCA | -0.129
114 | ATAGAAAC | 0.0847
115 | AACGTATC | -0.0288
116 | CCGGTACC | 0.0368
117 | AGGTCTGC | -0.276
118 | AACTGGAG | -0.249
119 | ACAGGACG | 0.15
120 | GTTTAAAC | 0.299
121 | GTAACGGA | 0.175
122 | AAGAGCTT | -0.0699
123 | GTAAGGAC | -0.194
124 | CTGTTTTC | 0.0271
125 | AACCTCTA | -0.144

Row | Sequence | PBM E-score
126 | ACAGGAGC | 0.106
127 | CTGCGCCA | -0.192
128 | AACTTCGC | -0.0198
129 | AGGTTGAG | 0.0336
130 | TGTCCGAA | -0.066
131 | ATAATGAC | -0.0486
132 | AGCTCAAT | -0.0703
133 | AGTAGAGC | -0.013
134 | CTTACTCA | -0.123
135 | GTGCGGTA | -0.0948
136 | CCAGCAGG | -0.00306
137 | CCCAGGAC | -0.288
138 | GCGTGCCA | -0.0888
139 | ATACTATC | 0.0544
140 | GATTCCAA | -0.0635
141 | TATGACCA | 0.142
142 | CGTGTAAG | 0.38
143 | ACGCTATC | -0.0382
144 | AGTAGACG | 0.0279
145 | AATACTAC | 0.155
146 | CCTCCGTC | -0.157
147 | GAAGTGTA | 0.106
148 | TGGAGTAA | -0.00595
149 | CGAAATCC | -0.0979
150 | CCCAGGGA | -0.345

Row | Sequence | PBM E-score
151 | CGAGTATA | -0.0712
152 | ACATATGC | 0.197
153 | TCTTGCAA | -0.0197
154 | ATATTTTA | 0.103
155 | CGCTAACA | 0.22
156 | ACGTTATC | 0.0877
157 | AGCACTGA | -0.122
158 | GCCACCGA | -0.138
159 | AGACCGAC | -0.111
160 | AACAGCCT | 0.0281
161 | ATCCTGAC | 0.0953
162 | CGAATTAA | 0.0895
163 | AAACGTGC | 0.118
164 | AGCTTCCG | -0.172
165 | CCATGTCG | 0.247
166 | ATGGCGTC | -0.0713
167 | ACTTGCGA | -0.11
168 | AAGTATAT | 0.109
169 | CCGGACCA | -0.137
170 | ACAAGCCC | 0.0399
171 | AGGTAAAG | 0.269
172 | ACTGCGCA | -0.17
